# This is one part of the list. At the low end of the ranking the order means little. The protein was read in a cell extract, so binding may be indirect.
# Biological target: T1, HNF4alpha2 (COS-7 nuclear extract) (UniProt P41235)
# T1 sequence: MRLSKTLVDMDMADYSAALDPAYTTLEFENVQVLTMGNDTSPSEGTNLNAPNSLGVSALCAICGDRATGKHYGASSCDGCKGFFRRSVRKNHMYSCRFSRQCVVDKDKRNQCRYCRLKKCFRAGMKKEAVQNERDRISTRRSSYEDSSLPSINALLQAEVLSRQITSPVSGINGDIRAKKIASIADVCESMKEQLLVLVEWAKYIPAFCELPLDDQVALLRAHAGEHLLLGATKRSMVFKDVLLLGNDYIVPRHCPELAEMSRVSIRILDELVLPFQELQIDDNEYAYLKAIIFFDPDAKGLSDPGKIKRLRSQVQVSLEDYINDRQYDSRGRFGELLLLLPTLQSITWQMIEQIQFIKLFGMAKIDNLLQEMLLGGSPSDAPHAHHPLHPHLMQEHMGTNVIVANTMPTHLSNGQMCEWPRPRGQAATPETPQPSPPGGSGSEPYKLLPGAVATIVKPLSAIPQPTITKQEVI
# Assay: protein-binding microarray
# Details: COS-7 nuclear extract on double-stranded Agilent 4x180k PBM; binding buffer, salt, pH and temperature not given; high values mean tight binding; double strand, one strand shown; sequences stand for … in …GCCTAGGGAGATTAGAGTATCGGTCGA
row,Sequence,binding signal (log2 normalized intensity)
1,CTCTGACCATGCCTATAAATTGCCTGGCTT,-1.09
2,GGAGGAAAAAGAATGCCTCTTTCAAAACCT,-1.13
3,TAAGAGCTATCAATGACCCATGTTTGCCCT,3
4,CTGAGGCAAGTCTCTTTTAGGCTGTCAGCC,-0.548
5,ATGCTCAGCCCACCTTTTGGCTGTAGAAAG,0.667
6,AAGACTTCCTGGCCTCTCTGCAAATTTGCC,-0.993
7,AATGCACTTGTTCCGGATAGCCAAATAGCC,-0.596
8,AGGCATGAGAGGTGCTGCATGGGCTGAGCC,-1.21
9,TACCGACAACGCCAAGGACCGCCAAGGAAG,-1.14
10,ACAAAGGTGAGCTTTTATCTTAAGTGAGGT,1.03
11,AACCCGCCCCCTCCCCCTGCCGGCGGCGCA,6.06
12,AGGGTCTGTTTTCAAACACAGGATTGAACC,2.46
13,AGGACAGGGCCCTTCACTATTTTCAAAGGT,-0.802
14,AAAACACAGCTCACCACCTAGTAAAGGGTG,-0.998
15,TTGAAGTGACTAAATGAGAAGAAATGATGG,1.69
16,GCTCTTTGTACCGTTTGAACAGCCAAGGAA,1.07
17,ACTCATGAGCCATCCTGAACAAATGTACTG,-0.853
18,CTTCCTGACTTGGCCTGAACCAGTTTCTCA,-1.16
19,CCCGGGAATTCTGGGTAGTGTAGTTCCGCT,-1.2
20,CATGGGCAAATAAAGCTAACCAGCTCTATC,-0.988

row,Sequence,binding signal (log2 normalized intensity)
1,TGCCGCAACATTGTCCAGCAGACACGGGCA,-0.93
2,GGTCCACCGTGCGCAAACACACCCACCAAC,1.3
3,TTTGATCTGATGTACCCAGCACTGTCAGCA,-1.07
4,GGATTAAGGAGAAGGCTCCCAAGGTATCCT,-1.32
5,ACAGATGGGCTTGCCTAAGACATGCTCGCA,-0.984
6,ACCTTGCTGATTACAGGTTGCAGTAAAGAA,0.184
7,TATCTCCCAGCTGGAGTCTTCTCTATCCTT,-0.994
8,CAGTGTCACAGACTTAGCACAGGAAAGGGC,-1.02
9,GGAAATTGTCAGTGCCCTATACAGACCTTT,2.82
10,ACCCGGGTACTGGAAACTGGGCAAGGTCCA,3.46
11,GCTCACATACCACTGACTAAAGCAAGTCAG,-1.12
12,AGGGAGTGGCAGCATTGTGCTGAAAAGACT,-0.635
13,AGACCAAGGAGGCCTCTTCCCCAAACTAGG,-1.13
14,GCCTGGAGGTACCTAGGGGACATTCTTTAG,-0.918
15,ACCAGCTGCCTCTTGTGTTCACTCTAGGAA,-1.07
16,AGGGTTCAAACTCCAGCTCTGATACTTTCT,3.12
17,GGTGTGAGAGGGCAAAGGTCACAGCATTAG,6.76
18,GACACCGGGTGAAGGTTAAATAGCTCATTA,0.567
19,TTTTTCCCCTGAAATATCATTATCTTGATC,1.53
20,CTCATTGGCCAGTATCCGCCTTCACTCCCC,1.85

# Reference: PMC10726135
